# Measured values as given in PubChem BioAssay AID493208 (National Center for Advancing Translational Sciences (NCATS), 2011).
# Among all 44,000 compounds or so, about 340 (0.77%) were called active. Not shown: some 5% with an inconclusive outcome. Calls come from the whole dose curve; as a rule, active = well fitted inhibition curve with a large enough effect; inconclusive = small, poorly fitted or top-dose-only effect; inactive = flat fitted curve, though single readings scatter. The list shows a part of the results.
# Assay: Acumen qHTS Assay for Inhibitors of the mTORC1 Signaling Pathway in MEF (Tsc2-/-, p53-/-) Cells: Sytravon;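 note: plate controls were DMSO for no effect and rapamycin for full effect; nearly all actives have a fitted effect of over 50% in size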
# Conditions: phospho-rpS6 immunofluorescence/PI, 24 h; series mostly up to 38.3 µM; activity change, negative = inhibition: at the top concentration
# Method in brief: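 Plate MEFs (Tsc2-/-, p53-/-, empty vector) in DMEM/10% FBS; after 24 h add compound, incubate 24 h at 37 degree Celsius; fix in PFA/TX-100, block, stain phospho-rpS6 and 10 uM PI; scan at 488 nm; report % positive cells.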
row,Compound,"activity change, negative = inhibition"
1,Cc1ccc(S(=O)(=O)C(CNC(=O)COc2ccccc2)c2cccs2)cc1 (stereo unspecified),inactive: -8.11%
2,COC(=O)C1=C(C)NC(=O)NC1c1cn(-c2ccccc2)nc1-c1ccc(OC)c(Br)c1 (stereo unspecified),inactive: -5.18%
3,CCCn1c(COc2cccc(C)c2)nc2ccccc21,inactive: -6.35%
4,O=c1oc2cc(O)ccc2cc1-c1nc(-c2ccc(Cl)c(Cl)c2)cs1,inactive: 3.11%
5,COc1cccc(-n2c(SCC(=O)c3ccccc3)nc3c([nH]c4ccccc43)c2=O)c1,inactive: -1.34%
6,CCOc1cccc(NC(=O)c2sc3nc(-c4ccc(F)cc4)ccc3c2N)c1,inactive: -16.1%
7,CCSc1ncc(Cl)c(C(=O)N(Cc2ccccc2)c2ccc(OC)cc2)n1,inactive: -19.5%
8,COc1cc(CNCCSc2nnnn2C)ccc1OCc1ccc(C)cc1,inactive: -14.4%
9,O=c1c(=O)n(-c2ccccc2)ccn1Cc1c(F)cccc1Cl,inactive: 0.984%
10,O=C(COCc1cc(-c2cccs2)on1)N1CCN(c2ccc(F)cc2)CC1,inactive: -5.93%
11,Cc1nc2cccnc2n1C1CCN(C(=O)Nc2ccccc2)CC1,inactive: 0%
12,O=C(c1ccccc1)N1CCCC(c2nc3c(nnn3Cc3ccc(F)cc3F)c(=O)[nH]2)C1 (stereo unspecified),inactive: -0.741%
13,COc1cc(C(=O)Nc2ccc(-n3c(C)nc4ccccc4c3=O)cc2)cc(OC)c1OC,inactive: 2.16%
14,Cc1cc(C)cc(N2CC(c3nnc(NC(=O)c4ccco4)s3)CC2=O)c1 (stereo unspecified),inactive: -8.5%
15,O=c1c2oc3ccccc3c2n(Cc2ccc(F)cc2)c(=O)n1Cc1ccco1,inactive: -1.06%
16,Cc1ccc(-c2noc(-c3ccc(NCc4cccnc4)c([N+](=O)[O-])c3)n2)cc1,inactive: 6.07%
17,CCCCn1c(=NC(=O)c2c(-c3c(F)cccc3Cl)noc2C)c(C(=O)OCC)cc2c(=O)n3ccccc3nc21,inactive: 2.95%
18,CCOC(=O)C1CCN(C(c2ccc(OCC)cc2)c2c(O)cc(C)n(CCOC)c2=O)CC1 (stereo unspecified),inactive: -1.42%
19,COc1ccc(CNS(=O)(=O)c2cc(Br)cc3c2N(C(C)=O)C(C)C3)cc1 (stereo unspecified),inactive: -8.56%
20,O=C(NCc1cccc(F)c1)c1ccc(CN2CC(=O)N3CCCCC3C2=O)cc1 (stereo unspecified),inactive: -4.45%
21,Cc1ccc(-n2cnc3cc(C(=O)NCc4ccc(F)cc4)ccc32)c(C)c1,inactive: 11.5%
22,CCCCc1ccc(-n2nc3cc(Cl)c(NC(=O)c4ccc(OC)cc4)cc3n2)cc1,inactive: 3.04%
23,Cc1cccc(C(=O)NCCc2nc3ccccc3n2Cc2ccc(Cl)cc2)c1,inactive: -5.07%
24,CCOC(=O)c1cccc(NS(=O)(=O)c2ccc3[nH]c4c(c3c2)CCCC4)c1,inactive: -19%

row,Compound,"activity change, negative = inhibition"
1,Cc1ccc(OC(C)C(=O)N2CCN(CCc3ccncc3)CC2)cc1C (stereo unspecified),inactive: 0.135%
2,O=S(=O)(NCc1ccc(Cl)cc1)c1ccc2[nH]c3c(c2c1)CCCC3,inactive: -6.1%
3,CCOc1ccc(-c2cc3c(=O)n(Cc4nc(-c5ccccc5OCC)oc4C)ccn3n2)cc1Cl,inactive: 4.88%
4,Cc1ccc(Cn2c(C)c(CNCC(C)c3ccccc3)c(C(=O)O)c2C)cc1 (stereo unspecified),inactive: -3.81%
5,Cc1ccc(NC(=O)c2ccc(Cl)cc2Cl)c(C(=O)c2ccccc2)c1,inactive: 13.5%
6,COCCCNC(=O)C1CCC(Cn2c(=O)c3sccc3n(C)c2=O)CC1 (stereo unspecified),inactive: -5.05%
7,CCC(CC)C(=O)Nc1ccccc1SCc1cc(=O)c2cccc(C)c2[nH]1,inactive: -16.9%
8,Cc1ccc(NC(=O)CN2CCN(c3ccccc3F)CC2)cc1F,inactive: 10.6%
9,CCOC(=O)C1CCN(c2nc3c(S(=O)(=O)c4ccccc4)nnn3c3ccc(Cl)cc23)CC1,inactive: -1.85%
10,COc1ccc(C(=O)c2sc3nc(-c4ccc(C)cc4)cc(C(F)(F)F)c3c2N)cc1,inactive: 0.203%
11,Cc1ccc(C)c(N2CCN(S(=O)(=O)c3ccc(-c4coc(C)n4)cc3)CC2)c1,inactive: 2.03%
12,CCCCc1c(C)nc2c(-c3ccc(Cl)cc3)c(C)[nH]n2c1=O,inactive: 9.71%
13,COc1cc(OC)cc(C(=O)Nc2ccc(-c3nc4cc(C(C)C)ccc4o3)cc2)c1,inactive: -2.96%
14,COc1ccc(-n2cc(-c3ccc4c(c3)OCO4)n(CC(=O)Nc3cccc(C)c3C)c2=O)c(OC)c1,inactive: -14.6%
15,CCCCN(CCCNC(=O)c1cc(Nc2ccc(OC)cc2)nc2ccccc12)Cc1ccccc1,inactive: -12.3%
16,O=S(=O)(Nc1ccc(F)c(Cl)c1)c1ccc(Br)s1,inactive: 4.45%
17,Cc1ccc(S(=O)(=O)c2nc(S(=O)(=O)c3ccc(C)cc3)c(NCCCOC(C)C)s2)cc1,inactive: 3.94%
18,Cc1cccc(N2CCN(C(=O)Cn3ncc4c5ccccc5n(C)c4c3=O)CC2C)c1 (stereo unspecified),inactive: -1.77%
19,O=c1c(S(=O)(=O)c2ccccc2)cn(Cc2ccc(F)cc2)c2cc(N3CCOCC3)c(F)cc12,inactive: -2.19%
20,O=C(COCc1cc(-c2ccc(F)cc2)on1)Nc1cc(Cl)ccc1O,inactive: -10.3%
21,CC(=O)C1=C(c2ccc(Cl)c(Cl)c2)N(C(C)=O)n2c(nnc2-c2ccccc2)S1,inactive: -2.92%
22,COc1ccc(CCNC(=O)CCCn2c(=O)c3ccccc3n(Cc3ccccc3C#N)c2=O)cc1OC,inactive: -22.5%
23,Cc1ccccc1-n1nc(CO)c(C(=O)NCC(c2ccccc2)c2ccccc2)n1,inactive: -28.6%
24,COc1cccc2cc(-c3nc(Nc4cccc(C)c4C)sc3C)c(=O)oc12,inactive: -11%

row,Compound,"activity change, negative = inhibition"
1,Nc1nonc1C(=O)NCCNCc1ccccc1F,inactive: -7.79%
2,CC(=O)Nc1nonc1-c1nnc(SCC(=O)Nc2cc(Cl)ccc2C)n1C,inactive: 0%
3,COc1cccc(C2C=C(c3ccccc3)Nc3c(C(=O)Nc4ccccc4)cnn32)c1OC (stereo unspecified),inactive: 4%
4,COc1cc(C(CC(=O)Nc2cccc(C(C)=O)c2)N2Cc3ccccc3C2=O)cc(OC)c1OC (stereo unspecified),inactive: -5.55%
5,CCOC(=O)c1c(NC(=O)/C=C/c2ccc(C)cc2)sc(C(C)=O)c1C,inactive: -10.4%
6,Cc1cccc(C(=O)Nc2sc3c(c2C(=O)NC(C)C)CCCC3)c1,inactive: -3.39%
7,Cn1c(=O)c2c(nc(NCCc3ccccc3)n2Cc2ccc(Cl)cc2)n(C)c1=O,inactive: -19.6%
8,CCOC(=O)c1cc(S(=O)(=O)NCc2cccc(Cl)c2)[nH]n1,inactive: -3.72%
9,CCOC(=O)c1cnc2cc(F)c(F)cc2c1Nc1ccccc1O,inactive: 5.66%
10,CC(C)(C)OC(=O)N1CCC(c2c(C(=O)N3CCCCC3)cnn2-c2cccc(F)c2)CC1,inactive: 0.97%
11,CC(=O)c1ccc(N2CCN(C(=O)CCc3nnc4n(C)c(=O)c5sccc5n34)CC2)cc1,inactive: -1.73%
12,COc1cc(OC)c(NC(=O)c2noc3c2CSc2ccccc2-3)cc1Cl,inactive: 2.71%
13,CCCCn1c(SCC(=O)Nc2ccc(OCC)cc2)nc2ccsc2c1=O,inactive: -3.03%
14,Cc1ccc(CNC(=O)CSc2ncc3c(n2)-c2ccc(Cl)cc2N(Cc2ccccc2)S3(=O)=O)cc1,inactive: 2.11%
15,Cc1ccc(NS(=O)(=O)c2cc3[nH]c(=O)c(=O)[nH]c3cc2C)cc1N(C)C,inactive: -8.33%
16,CCc1ccccc1NC(=O)[C@@H](c1ccccc1)N1Cc2ccccc2C1=O,inactive: -2.44%
17,Cc1ccc(NC(=O)CCCn2c(=O)c3cccn3c3cccnc32)cc1C,inactive: -28%
18,Cc1ccc(C)c(NC(=O)CSc2nnc(-c3cc4occc4n3C)n2-c2ccccc2C)c1,inactive: -0.506%
19,CC(C)CC(=O)Nc1ccccc1OCc1cc(=O)n2ccccc2n1,inactive: -11.8%
20,CC(=O)N1CCc2c(sc3c2c(=O)n(-c2cc(Cl)ccc2C)c(=O)n3Cc2ccccc2F)C1,inactive: 0.201%
21,CC1(C)CC(=O)c2c(oc3c(Cl)cc(NS(=O)(=O)c4ccc(Br)cc4)cc23)C1,inactive: -15%
22,COc1ccc(C(=O)COC(=O)CCCC(=O)Nc2cc(C(F)(F)F)ccc2Cl)cc1,inactive: 0.694%
23,COC(=O)c1cc(Cl)ccc1NC(=O)CSc1ncc(S(=O)(=O)c2ccc(Br)cc2)c(=O)[nH]1,inactive: 4.41%
24,O=C(Nc1ccc(Br)cc1F)N1CCC(CN2CCc3ccccc3C2)CC1,inactive: -0.162%

row,Compound,"activity change, negative = inhibition"
1,COc1ccc(OCC(=O)OCc2cc(=O)n3nc(C4CC4)sc3n2)cc1,inactive: -0.989%
2,Cc1ccc(Nc2c(-c3ccc(C)s3)nc3ncccn23)cc1,inactive: -2.14%
3,CCOC(=O)c1c(NC(=O)/C=C/c2ccc(C)cc2)sc2c1CCCC2,inactive: 2.63%
4,CCCCOC(=O)c1ccc(NC(=O)c2cc(-c3cccs3)on2)cc1,inactive: -10.2%
5,Cc1ccc(CNC(=O)CCCc2nnc3n(C)c(=O)c4sccc4n23)cc1,inactive: 3.29%
6,O=C(NCCc1ccc(Cl)cc1)c1cc(-c2ccc(Cl)cc2)n[nH]1,inactive: 1.88%
7,COc1ccccc1CNC(=O)c1ccc(-c2nc(CS(=O)(=O)c3ccc(C)cc3)c(C)o2)cc1,inactive: -6.34%
8,CCC(C)NC(=O)c1ccc2nc(CCc3ccccc3)oc2c1 (stereo unspecified),inactive: -3.52%
9,Cc1ccc(NC(=O)C(=O)NCC(c2ccc3c(c2)OCO3)N2CCOCC2)cc1C (stereo unspecified),inactive: -5.63%
10,CCOc1ccc(NC(=O)CCCc2nnc3n(C)c(=O)c4sccc4n23)cc1,inactive: -2.36%
11,CC1=C(C(=O)Nc2ccccc2)C(c2cccc(Cl)c2)n2nc(SCC(=O)c3ccc(C)cc3)nc2N1 (stereo unspecified),inactive: -8.8%
12,O=C(CSc1nc(-c2ccccc2)nc2c1Cc1ccccc1O2)N1CCCCC1,inactive: -16.4%
13,O=c1[nH]c2ccc(NCc3ccc(-c4ccccc4)o3)cc2[nH]1,inactive: -12.2%
14,Cc1cccc(OCC(=O)Nc2ccccc2C(=O)OCc2cc(=O)n3nc(C)sc3n2)c1,inactive: 12.4%
15,O=C(Nc1ccc2oc(-c3ccc4ccccc4c3)nc2c1)c1ccc(Cl)c(Cl)c1,inactive: -10.6%
16,CCOc1ccccc1Nc1sc(C(=O)c2ccccc2)c(N)c1S(=O)(=O)c1ccc(C)cc1,inactive: 4.78%
17,Cc1ccc(CCNC(=O)c2cc3c(-c4ccccc4F)nn(C)c3s2)cc1,inactive: -0.656%
18,CCOc1ccc(-c2oc3ccc(C)cc3c(=O)c2O)cc1,inactive: 7.59%
19,Fc1ccc(Nc2ncnc3c2nc2n3CCCCC2)c(F)c1,inactive: 0.77%
20,COCCCNC(=O)c1ccc2c(c1)nc(C)n2-c1cccc(C)c1,inactive: -12.5%
21,O=C(Nc1ccc(C(=O)OCc2cc(=O)n3nc(C4CC4)sc3n2)cc1)c1cccc(F)c1,inactive: 1.81%
22,CCN(c1ccccc1)S(=O)(=O)c1ccc(NC(=O)c2cc(=O)c3ccccc3o2)cc1,inactive: 4.54%
23,O=C(Nc1ccc(F)cc1)C1CCN(S(=O)(=O)c2ccc3c(c2)CCCN3C(=O)C2CCC2)CC1,inactive: -4.55%
24,COc1ccc2c(CNC3CCCCCC3)c(C(=O)O)n(Cc3ccccc3F)c2c1,inactive: -2.9%
